Assay results from the supplement of paper PMC3334620.
Whole data set: some 33,000 sequences, median “E-score (-0.5 to 0.5)” near -0.054, cut for the highest 2% near 0.39. The list shows a part of the results.

molecular target: Ylr278c (UniProt Q05854); test: PBM E-score (8-mer binding enrichment) (E-score (-0.5 to 0.5)); higher = stronger / more preferred TF binding; most listed sequences are background and not binding sites; details: protein concentration: 200 nM; construct: GST-DNA-binding domain
Protocol: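 Universal 'all 10-mer' protein binding microarrays (Agilent AMADID 015681) probed with GST-tagged S. cerevisiae TFs (full-length or DBD) made by in vitro transcription/translation (PURExpress), about 100-200 nM. Bound TF was detected with fluorescent anti-GST. Each ungapped 8-mer (which stands for itself and its reverse complement) is scored by the PBM enrichment score (E-score), a modified Wilcoxon-Mann-Whitney statistic from -0.5 to +0.5, computed with the Universal PBM Analysis Suite. Scale: above 0.35 generally sequence-specific binding.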

Sequence	PBM E-score
GTAGAAAA	-0.159
TGATCTAA	-0.15
AGCCGATA	0.0691
GGTCTGAA	-0.00874
CTTGACTC	-0.162
GCTGTGGA	-0.0372
ACAGACGG	-0.0501
AAATGGCC	0.148
ACTTACGG	0.228
ATGAGGCC	-0.0719
CAAAGGGA	-0.279
TGCGTTAA	-0.238
ACGGCGGA	0.37
AGTACCAA	0.0288
CCGGGCCC	0.339
AGCACGTC	-0.0777
CACGGTTA	0.0945
CCATAGAA	-0.134
CAAATTCC	0.338
AACATCAC	-0.154
GGAATCGA	0.159
GTATCACA	-0.163

Sequence	PBM E-score
TTACAGAA	-0.225
ATACACAC	-0.256
AGTCGTGG	-0.166
GAACAAAC	0.137
GGCGTTAC	-0.0409
ACCTTAGG	-0.17
ACGTAGGC	-0.281
AGATACCG	0.149
CTTACATA	-0.0547
CAATCGTC	-0.0904
ACGAAGGG	-0.305
CCGTCACA	0.09
TACTTTCA	-0.0659
AAAGCTCT	-0.224
AACCTATC	-0.0841
CTTGGCTC	-0.188
AGCGGAGG	0.302
CCCCCTTA	-0.247
AGCTTGAC	-0.138
GAATCACA	0.14
CCCTACTC	0.201
AATCTACA	-0.114

Sequence	PBM E-score
AGTGACAC	-0.0981
CAGACGAG	-0.246
CGCTTAAC	-0.0508
CCGTATCG	0.122
CCGCGCAG	0.274
GGGCCACA	-0.0157
ATTCGCGC	0.118
CCGTCGTC	0.127
GACCGATC	0.243
ATTGAATG	-0.0302
AAGGTCCA	-0.124
GTGTTGAA	-0.195
AGAAGCCC	0.201
CATAGGTC	-0.157
GGGCCCCA	0.0371
CAAGTACG	-0.185
ATCCTGCA	-0.185
AGTCCTCA	0.0196
CGCAGACG	0.0302
CCCTGCGG	0.132
AACACTCT	0.0393
ACAATGTC	-0.0284

Sequence	PBM E-score
AAAAGTGG	0.0219
CCAAATGC	-0.0895
AGTACTAT	-0.178
ATTACTCA	-0.132
ACTATGCC	-0.0527
TCGGGTCA	0.232
CGCTATAA	-0.0532
ATCCGCCG	0.401
AGTTGTTA	-0.0971
AAGCGTGT	-0.23
AGCCAGTG	-0.268
AGGAGCAT	-0.156
AGTTAACC	0.0556
CGAGACGC	-0.00261
AATACATT	-0.121
CGCATAGA	-0.00481
AAACGCTT	-0.0633
TCTTAACA	-0.209
CACTTGAA	-0.137
CCCGATGA	0.295
TATGGCGA	-0.119
ATAGAGAA	-0.0893

Sequence	PBM E-score
CAGTCAAA	-0.143
ACAGGCAC	-0.126
CGTGACTA	-0.114
CTAATCGA	-0.0569
AATACCGA	0.224
ACTCTGAA	-0.0533
AGATAAGA	-0.0454
CTTACAGA	-0.0798
AGCGCAGC	0.0149
CAATGCAG	-0.0883
GAGGTAGC	-0.0618
ACAAAACG	0.149
AATAGTGT	0.104
CGGTCACA	0.0763
ACCGGTCC	0.337
AGCAGACC	-0.132
AAGTCGTG	-0.158
GACTAACA	0.00497
CCTCTGTA	-0.276
GGAGGGGA	0.0648
GCCAACAA	-0.141
